The results in this text go back to publication PMC3616983.

Chains of the proteins cited; added tags and fusions are not shown.
UniProt Q7L804: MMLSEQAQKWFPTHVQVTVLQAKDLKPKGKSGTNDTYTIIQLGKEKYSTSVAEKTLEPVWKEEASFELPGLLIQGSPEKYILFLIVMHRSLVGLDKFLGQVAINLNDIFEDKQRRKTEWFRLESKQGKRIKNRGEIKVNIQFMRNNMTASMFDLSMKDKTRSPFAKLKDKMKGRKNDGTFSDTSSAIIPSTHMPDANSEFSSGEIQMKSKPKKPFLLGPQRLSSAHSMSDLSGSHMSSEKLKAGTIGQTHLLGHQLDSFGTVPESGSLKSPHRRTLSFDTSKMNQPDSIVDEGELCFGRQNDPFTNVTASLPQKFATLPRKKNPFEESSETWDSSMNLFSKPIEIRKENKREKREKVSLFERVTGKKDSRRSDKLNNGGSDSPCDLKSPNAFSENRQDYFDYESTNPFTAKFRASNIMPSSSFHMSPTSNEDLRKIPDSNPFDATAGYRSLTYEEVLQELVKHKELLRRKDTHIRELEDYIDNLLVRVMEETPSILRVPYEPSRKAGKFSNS
UniProt P62491: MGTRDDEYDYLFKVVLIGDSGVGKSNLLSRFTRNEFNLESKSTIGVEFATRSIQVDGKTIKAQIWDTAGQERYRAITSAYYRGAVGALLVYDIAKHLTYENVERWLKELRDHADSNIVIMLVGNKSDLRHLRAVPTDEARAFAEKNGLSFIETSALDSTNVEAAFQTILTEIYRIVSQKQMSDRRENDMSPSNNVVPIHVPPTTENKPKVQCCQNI
UniProt P61006: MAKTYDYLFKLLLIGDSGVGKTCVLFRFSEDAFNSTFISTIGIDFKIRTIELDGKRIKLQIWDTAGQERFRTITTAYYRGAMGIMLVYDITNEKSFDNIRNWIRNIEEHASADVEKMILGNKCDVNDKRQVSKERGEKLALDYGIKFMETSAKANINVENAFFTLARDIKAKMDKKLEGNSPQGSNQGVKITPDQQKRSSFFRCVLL

No constants are given. Whether binding was seen depends on the method and setting. Some results given as binding are weak or reduced against the parent protein; the word gives no strength.

What all share (assay): two-hybrid; split-ubiquitin yeast two-hybrid; Rab11-FIP proteins in CCW vectors, Rab proteins in DSL vectors; consistent over three separate experiments
Assay [1] concerns the target T1, Rab11-FIP1B (UniProt Q6WKZ4).
T1 sequence: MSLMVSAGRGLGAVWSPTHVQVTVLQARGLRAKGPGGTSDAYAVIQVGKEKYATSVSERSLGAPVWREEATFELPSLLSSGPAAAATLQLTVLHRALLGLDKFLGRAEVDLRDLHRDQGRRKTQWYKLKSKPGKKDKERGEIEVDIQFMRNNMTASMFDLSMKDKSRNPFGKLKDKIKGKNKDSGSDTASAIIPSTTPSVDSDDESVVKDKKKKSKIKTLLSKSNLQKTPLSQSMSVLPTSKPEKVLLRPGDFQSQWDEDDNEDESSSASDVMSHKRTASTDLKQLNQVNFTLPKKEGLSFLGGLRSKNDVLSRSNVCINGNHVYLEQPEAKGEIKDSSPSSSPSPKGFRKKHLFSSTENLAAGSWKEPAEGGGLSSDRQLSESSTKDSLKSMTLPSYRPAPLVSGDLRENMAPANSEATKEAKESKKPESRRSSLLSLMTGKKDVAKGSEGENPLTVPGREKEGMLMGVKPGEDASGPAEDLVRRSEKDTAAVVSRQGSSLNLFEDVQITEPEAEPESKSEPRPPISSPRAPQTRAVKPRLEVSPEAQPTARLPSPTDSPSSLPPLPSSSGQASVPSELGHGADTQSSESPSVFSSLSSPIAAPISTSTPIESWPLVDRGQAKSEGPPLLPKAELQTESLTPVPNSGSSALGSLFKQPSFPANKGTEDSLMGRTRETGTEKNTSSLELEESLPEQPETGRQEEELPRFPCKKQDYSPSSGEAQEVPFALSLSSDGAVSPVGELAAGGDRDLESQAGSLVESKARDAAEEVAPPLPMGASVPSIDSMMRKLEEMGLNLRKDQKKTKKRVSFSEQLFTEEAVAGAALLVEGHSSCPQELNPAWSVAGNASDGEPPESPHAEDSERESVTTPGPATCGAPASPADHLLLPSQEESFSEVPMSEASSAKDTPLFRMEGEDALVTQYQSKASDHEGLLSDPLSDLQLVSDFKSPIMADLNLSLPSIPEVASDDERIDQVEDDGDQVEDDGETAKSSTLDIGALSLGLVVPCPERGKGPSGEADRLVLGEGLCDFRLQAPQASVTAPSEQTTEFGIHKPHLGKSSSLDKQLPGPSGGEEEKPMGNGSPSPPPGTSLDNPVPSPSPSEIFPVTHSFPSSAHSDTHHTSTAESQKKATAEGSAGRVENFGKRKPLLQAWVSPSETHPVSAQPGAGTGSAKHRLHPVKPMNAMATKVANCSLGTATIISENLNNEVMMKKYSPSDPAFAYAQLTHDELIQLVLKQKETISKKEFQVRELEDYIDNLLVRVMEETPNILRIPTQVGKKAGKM

In assay [2] the target is T2, Rab11-FIP1C/RCP (UniProt Q6WKZ4).
T2 sequence: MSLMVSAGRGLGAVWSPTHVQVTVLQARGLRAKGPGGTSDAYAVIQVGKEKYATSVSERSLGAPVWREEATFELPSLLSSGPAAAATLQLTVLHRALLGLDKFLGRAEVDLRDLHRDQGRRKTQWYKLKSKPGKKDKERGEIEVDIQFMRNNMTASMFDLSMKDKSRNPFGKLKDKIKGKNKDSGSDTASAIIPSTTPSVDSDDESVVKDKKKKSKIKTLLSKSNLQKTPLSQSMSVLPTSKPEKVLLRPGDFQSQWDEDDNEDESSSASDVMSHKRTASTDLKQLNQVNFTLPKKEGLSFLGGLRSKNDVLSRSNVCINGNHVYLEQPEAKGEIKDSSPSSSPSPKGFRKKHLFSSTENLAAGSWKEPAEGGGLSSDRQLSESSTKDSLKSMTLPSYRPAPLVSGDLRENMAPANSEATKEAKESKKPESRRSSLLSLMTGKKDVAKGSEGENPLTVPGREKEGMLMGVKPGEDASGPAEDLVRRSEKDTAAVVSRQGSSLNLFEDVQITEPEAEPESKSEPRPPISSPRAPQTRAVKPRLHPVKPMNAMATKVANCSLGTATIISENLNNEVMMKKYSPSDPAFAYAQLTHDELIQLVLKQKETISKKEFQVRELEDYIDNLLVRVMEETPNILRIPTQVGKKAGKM

For assay [3], the target named is Rab11-FIP2 (UniProt Q7L804).

On to Rab11a (from UniProt P62491 1-216), for which the binding result in assay [1], in assay [2] and in assay [3] was “binds” in each case.
In the case of Rab8a (from UniProt P61006 1-207), the binding entry in assay [1], in assay [2] and in assay [3] was “no binding” in each case.
